From paper PMC4336329 (PLoS ONE, 2015)
In all, about 310,000 compounds went through this assay and about 14,000 (4.5%) showed an effect of 50% or more. Effects have a minus sign here. The list shows a part of the results.

Biological target: human ether-à-go-go-related gene (hERG) potassium channel (human, UniProt Q12809)
Experiment: primary screen, population patch clamp on CHO cells stably expressing hERG
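Also: peak tail current of the secondary pulse compared with the same well before compound.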

Sequence of human ether-à-go-go-related gene (hERG) potassium channel (Q12809 whole entry, looked up): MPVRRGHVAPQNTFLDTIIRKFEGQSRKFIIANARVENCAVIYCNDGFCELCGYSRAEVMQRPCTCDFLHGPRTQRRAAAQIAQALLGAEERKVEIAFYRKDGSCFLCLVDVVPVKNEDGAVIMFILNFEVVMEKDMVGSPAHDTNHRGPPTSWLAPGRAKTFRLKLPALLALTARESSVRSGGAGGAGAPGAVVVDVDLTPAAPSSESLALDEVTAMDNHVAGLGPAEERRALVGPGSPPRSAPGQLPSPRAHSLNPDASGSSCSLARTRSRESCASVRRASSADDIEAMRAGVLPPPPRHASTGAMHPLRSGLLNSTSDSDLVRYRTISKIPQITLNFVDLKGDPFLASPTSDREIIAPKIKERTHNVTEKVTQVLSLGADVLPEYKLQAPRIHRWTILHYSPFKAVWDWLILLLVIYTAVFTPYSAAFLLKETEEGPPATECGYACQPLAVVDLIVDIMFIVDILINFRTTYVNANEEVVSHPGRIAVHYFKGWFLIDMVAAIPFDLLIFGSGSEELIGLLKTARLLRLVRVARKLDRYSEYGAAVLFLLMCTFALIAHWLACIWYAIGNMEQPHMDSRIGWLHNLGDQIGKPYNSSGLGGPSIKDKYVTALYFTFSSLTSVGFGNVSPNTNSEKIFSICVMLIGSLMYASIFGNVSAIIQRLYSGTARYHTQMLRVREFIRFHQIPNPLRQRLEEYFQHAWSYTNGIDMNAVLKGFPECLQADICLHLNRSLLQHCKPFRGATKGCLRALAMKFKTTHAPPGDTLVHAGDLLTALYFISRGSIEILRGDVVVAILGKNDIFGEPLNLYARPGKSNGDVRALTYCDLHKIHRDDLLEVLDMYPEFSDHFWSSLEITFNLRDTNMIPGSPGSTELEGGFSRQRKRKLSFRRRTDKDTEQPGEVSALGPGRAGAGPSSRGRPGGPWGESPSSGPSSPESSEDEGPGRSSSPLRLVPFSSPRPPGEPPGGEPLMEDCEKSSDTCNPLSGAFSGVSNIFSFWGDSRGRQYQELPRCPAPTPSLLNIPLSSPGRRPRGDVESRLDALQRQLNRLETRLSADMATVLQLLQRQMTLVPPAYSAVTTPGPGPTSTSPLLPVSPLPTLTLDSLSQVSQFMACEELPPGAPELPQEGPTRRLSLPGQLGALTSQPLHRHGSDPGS

SMILES	hERG current change (%, negative = inhibition) at 10uM [%]
COc1ccc(Cn2c(C)nnc2-c2cnn(C)c2N)cc1OC	7.41
O=C(CSc1nnnn1C1CC1)Nc1cccc(S(=O)(=O)N2CCCC2)c1	-11.7
CCn1cc(C(=O)N2CCCc3ccccc32)c2cc(OC)c(OC)cc2c1=O	-2.25
Cc1csc(NC(=O)c2cc(C)on2)n1	10.6
CCC(=O)Nc1cccc(-c2nnc(-c3ccccc3)o2)c1	-4.36
c1ccc(CNc2nc3ccccc3[nH]2)cc1	-10.6
O=C(Cn1c(CO)nc2ccccc21)Nc1ccc2c(c1)OCCCO2	-6.55
O=C(Nc1ccccc1)C1COc2ccccc2O1 (centres unmarked)	3.19
COc1ccc(-n2nc(C(=O)NCC(=O)Nc3cc(OC)c(OC)c(OC)c3)c3ccccc3c2=O)cc1	12.4
COc1ccc(N2CC(NS(=O)(=O)c3ccc4ccccc4c3)CC2=O)cc1OC (centres unmarked)	-13.2
Cc1cc(Nc2cc(C(=O)O)ccc2C)n2ncnc2n1	-5.65
COc1ccccc1-n1c(SCC(=O)OC(C)C)nc2cccnc21	13.3
Nc1nc2ccc(Cc3ccncc3)cc2s1	13.7
CCn1c(COc2ccc(Cl)cc2)nnc1SCc1ccc(C#N)cc1	-70.5
N/C(=N/O)c1cccn1Cc1ccccc1[N+](=O)[O-]	22.9
O=C(Cn1ccc2ccccc2c1=O)NCCC(=O)Nc1cccnc1	13.2
CCCCNC(=O)C1CCC(CNS(=O)(=O)c2ccc(NC(C)=O)cc2)CC1 (centres unmarked)	6.5
Cc1c(C(=O)NCc2cccnc2)oc2ccccc12	-10.6
CCC(C)N(C(=O)COC(=O)/C=C/c1ccc(O)c(OC)c1)C1CCS(=O)(=O)C1 (centres unmarked)	10.7
COc1cc(OC)cc(C(=O)N[C@H](C(=O)NCCc2ccc(S(N)(=O)=O)cc2)C(C)C)c1	7.81
Cc1ccc(NC(=O)c2cc([N+](=O)[O-])ccc2N2CCOCC2)cc1C	-42.3
CCOc1ccccc1NC(=O)CSc1nnc(-c2ccco2)o1	-12
CC(=O)N1N=C(c2cccc(O)c2)CC1c1cccs1 (centres unmarked)	17.3

SMILES	hERG current change (%, negative = inhibition) at 10uM [%]
COc1ccccc1N1CCN(C(=O)C2CC2)CC1	20
COc1ccc(S(=O)(=O)CCC(=O)NCc2ccc(C)o2)cc1	4
O=C(CSc1nnc(-c2cccnc2)n1CCc1ccccc1)N1CCCCC1	-0.213
COCCCNc1nc2c(-c3cccc(C)c3)nnn2c2ccccc12	11.1
NC(=NCc1ccco1)NC(=O)c1ccccc1	25.8
Cc1ccccc1CC1(CO)CCCN(C(=O)c2ccccc2Cl)C1 (centres unmarked)	-81.5
CN(C)Cc1nc2c(c(=O)[nH]1)C1(CCCCC1)Cc1ccccc1-2	-11.7
CC1CCN(CC(C)OC(=O)c2ccc3c(c2)OCCO3)CC1.Cl (centres unmarked)	-5.31
O=C(NCCc1csc(-c2cccc(F)c2)n1)c1ccco1	-4.61
O=C(COC(=O)C1=COCCO1)NC(=O)c1ccc(OC(F)F)cc1	6.95
COc1ccc(/C=C2\SC(=S)N(CCC(=O)N(CCO)c3ccccc3)C2=O)cc1OC	18.4
CCCn1nnc(NC(=O)c2ccc3c(c2)OCO3)n1	15.6
CC(CC(=O)O)CC(=O)Nc1ccc(S(N)(=O)=O)cc1 (centres unmarked)	14.1
O=C(Nc1nnc(-c2ccc(Cl)s2)o1)C1CC1	5.76
Cc1nnsc1C(=O)Nc1ccc(S(=O)(=O)N2CCCCC2)cc1	16.9
Cc1cc(C)cc(OC2CCCCC2NS(=O)(=O)c2ccccc2)c1 (centres unmarked)	-6.55
O=C(CSc1nnc(-c2ccccn2)o1)Nc1ccccc1Cl	7.2
CCn1cc(C(=O)NCC(OC)OC)c(=O)c2cc(S(=O)(=O)N(C)C3CCCCC3)ccc21	-44.2
COc1cccc(C(=O)N2CCN(C3CCCCC3)CC2)c1.O=C(O)C(=O)O	-13.5
CCOC(=O)c1cnc2ccc(C)cc2c1N(C)Cc1ccccc1	-1.01
Cc1cc(OCC(=O)Nc2cc(-c3nn4c(C)nnc4s3)ccc2C)ccc1Cl	-0.386
CCN1CCc2ccccc2C1	11.7
O=C(CCC1COc2ccccc2O1)N1CCCC1 (centres unmarked)	-3.13

SMILES	hERG current change (%, negative = inhibition) at 10uM [%]
CCc1nc2c(sc3nc4c(cc32)COC(C)(C)C4)c(=O)n1CCN(CC)CC	-38.1
Cc1cc(C)n2nc(SCC(=O)Nc3ccc(S(=O)(=O)N(C)C)cc3)nc2n1	-32.7
O=C(O)c1c[nH]ccc1=O	6.89
CCOP(=O)(c1ccccc1)c1nc(-c2ccccc2C)oc1N1CCCCC1 (centres unmarked)	0.633
O=C(C1CCCN(S(=O)(=O)c2cccs2)C1)N1CCc2ccccc2C1 (centres unmarked)	-41.1
C[C@H](C(=O)CC(=O)OC(C)(C)C)[C@H](O)c1ccccc1	-18.5
C1CC(CN2CCOCC2)CN(Cc2nc(CC3CC3)no2)C1 (centres unmarked)	19
Cc1ccnc(NC(=O)c2cccc(NC(=O)c3ccccc3C)c2)c1	8.61
Cc1ccc(N=Cc2cc(Cc3ccccc3Cl)cc([N+](=O)[O-])c2O)c(O)c1	23.7
CCCCN(CC)C(=O)c1cc2c(=O)n3cccc(C)c3nc2s1	-0.924
O=C(NC1CCS(=O)(=O)C1)c1cccc(Br)c1 (centres unmarked)	7.43
COc1ccc(CNC(=O)CCSCc2ccccc2C)cc1	-17.8
CCc1nnc(NC(=O)CCC(=O)Nc2ccc(Cl)cc2)s1	18.3
COc1ccccc1N1CCN(C(=O)/C=C/c2cccs2)CC1	-19.2
COC(=O)[C@@H]1Cc2c([nH]c3ccccc23)C(C)N1C(=O)c1ccccc1 (some centres unmarked)	3.27
Cc1nn2c(-c3ccncc3)ccnc2c1Br	-1.19
COc1ccc(OCCN(C)Cc2c(O)ccc3ccccc23)cc1	19
Cc1csc(NC(=O)C(NS(=O)(=O)c2ccc(Br)s2)c2ccccc2)n1 (centres unmarked)	-1.44
CCCc1nnc(NC(=O)CCC(=O)NC2CCCCCC2)s1	13.7
Cc1cc(C(=O)CCl)c(C)n1Cc1ccco1	3.06
CC1CCCCC12NC(=O)N(CC(=O)c1ccc(Cl)s1)C2=O (centres unmarked)	12.9
Cc1cccc(/C(N)=N/OC(=O)COc2ccc(Cl)c(C)c2)c1	13.2
COc1cc(/C=C/C(=O)OCC(=O)NC(=O)NC(C)C)cc(OC)c1OC	36.4

SMILES	hERG current change (%, negative = inhibition) at 10uM [%]
COc1ccc(CCNS(=O)(=O)c2cccc(C)c2)cc1OC	9.8
O=C(C1CCCN1C(=O)c1cccs1)N1CCc2ccccc21 (centres unmarked)	5.02
CC(C)NS(=O)(=O)c1ccc(Br)c(C(=O)OC(C)C(=O)NC2CCCCC2C)c1 (centres unmarked)	-1.13
CN1CCN(C(=O)/C(=C\c2cccnc2)NC(=O)c2cccc(Br)c2)CC1	-4.02
Cc1ccccc1NC(=O)Cc1nc(CN(C)CC(=O)Nc2cccc(F)c2)cs1	-20.2
COc1ccc(NS(=O)(=O)c2c(C)cc(C)cc2C)cn1	-17.2
Cc1cccc(CCN=C(N)NS(=O)(=O)c2ccccc2)c1	10.1
CN1CCC(=O)N([C@H](CC#N)c2ccccc2)CC1	16.2
COc1ccc(S(=O)(=O)N2CCC3(CC2)OCCN3S(=O)(=O)c2c(C)cc(C)cc2C)cc1	10.4
Cc1ccc(S(=O)(=O)NNc2nnc(C)c(=O)[nH]2)cc1	17.3
Cc1ccc(O)c(C(=O)CC(=O)c2cccc(F)c2)c1	14.7
COc1ccc(C(=O)Nc2ccc3c(c2)nc2n3CCSC2)cc1	-24.7
O=C(c1ccc2c(c1)OCO2)N1CCN(c2cccc(C(F)(F)F)c2)CC1	-53.8
O=C(NC1CCCCCCC1)c1ccco1	-13
Cc1csc(NC(=O)Cn2nc(C)c([N+](=O)[O-])c2C)n1	8.42
CSc1ncc(C(=O)NCCCc2ccccc2)c(C)n1	6.8
CCN(c1ccccc1)S(=O)(=O)c1ccc(OC)c(NC(=O)CN2C(=O)NC(C)(C)C2=O)c1	4.75
CC1=NN(C(N)=S)C(=O)C1N=Nc1c(C)n(C)n(-c2ccccc2)c1=O (centres unmarked)	11.7
CCOc1ccc(-n2nc(C(=O)NC3CCCCC3)c3ccccc3c2=O)cc1	28.7
Cn1cccc1Cc1nnc(SCC(=O)Nc2ccc(F)cc2F)n1-c1ccc(F)cc1	-40.9
Cc1ccsc1/C=N/NC(=O)CSCc1ccc(Cl)cc1	12.7
CCN1C(=O)C2(SC(NC(C)=O)=NN2C(C)=O)c2cc(C)cc(C)c21 (centres unmarked)	6.22
O=[N+]([O-])c1ccc(N2CCN(S(=O)(=O)c3ccc(Cl)cc3)CC2)cc1NCC1CCCO1 (centres unmarked)	-22.3
